Assay [1] has as its target P1078_IXORI (Ixodes ricinus). As to the kind of experiment: BLI; cross-binding screen on OctetRed; evasin held on a nickel-coated biosensor through its C-terminal His tag; each human chemokine at 300 nM; both purified.
Assay [2] addresses T1, EVA3_RHISA (Rhipicephalus sanguineus) (UniProt P0C8E8).
T1 sequence: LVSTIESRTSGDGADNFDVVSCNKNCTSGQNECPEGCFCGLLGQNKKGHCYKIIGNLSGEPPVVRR
The assay is described as above.

The chains behind the UniProt entries cited, without tags or fusion partners. Residues count along the entry.
UniProt P48061, residues 22-93: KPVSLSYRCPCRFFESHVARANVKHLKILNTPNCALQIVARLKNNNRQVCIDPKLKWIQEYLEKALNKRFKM
UniProt P09341, residues 35-107: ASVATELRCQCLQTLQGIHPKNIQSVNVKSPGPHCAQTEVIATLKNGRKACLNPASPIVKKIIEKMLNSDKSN
UniProt P02778, residues 22-98: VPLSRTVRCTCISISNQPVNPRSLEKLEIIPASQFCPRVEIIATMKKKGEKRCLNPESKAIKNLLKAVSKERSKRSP

The target in assay [3] is P1090_IXORI (Ixodes ricinus). The description is as above.
The target of assay [4] is P1086_IXORI (Ixodes ricinus). Described as above.
For assay [5], the target named is T2, P1142_AMBCA (Amblyomma cajennense).
T2 sequence: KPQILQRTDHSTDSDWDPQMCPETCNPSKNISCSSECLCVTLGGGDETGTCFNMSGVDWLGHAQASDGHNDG
The description is as above.

For assay [6], the target named is P1124_IXORI (Ixodes ricinus). Described as above.
The target of assay [7] is T3, P1172_IXORI (Ixodes ricinus) (UniProt V5I2G9).
T3 sequence: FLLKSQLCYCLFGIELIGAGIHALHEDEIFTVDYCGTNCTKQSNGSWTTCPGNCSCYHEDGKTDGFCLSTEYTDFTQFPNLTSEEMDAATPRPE
The description is as above.

Assay [8] deals with P942_IXORI (Ixodes ricinus). The description is as above.
The target in assay [9] is T4, P1126_AMBCA (Amblyomma cajennense).
T4 sequence: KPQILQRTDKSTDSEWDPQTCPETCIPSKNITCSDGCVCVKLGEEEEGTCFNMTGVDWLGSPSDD
The assay is described as above.

Assay [10] concerns the target T5, Evasin 3 (EVA3) (Rhipicephalus sanguineus) (UniProt P0C8E8).
T5 sequence (chain, glycosylated (periodic acid–Schiff staining)): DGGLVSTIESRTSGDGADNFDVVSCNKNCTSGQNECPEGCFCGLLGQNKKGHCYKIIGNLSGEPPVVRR
Briefly: BLI; OctetRed; evasin held on a nickel-coated biosensor by its C-terminal His tag; cross-binding screen of a panel of human chemokines at 300 nM; both purified. A general note: In BLI a coated tip is dipped into the sample, and binding shifts an interference pattern.

Assay [11] concerns the target T6, P1172_IXORI displayed on yeast (Ixodes ricinus) (UniProt V5I2G9).
T6 sequence: T3 sequence
As to the kind of experiment: flow cytometry on cells; yeast surface display; individual yeast clones displaying an evasin labelled with biotinylated chemokine plus streptavidin-AF647, against streptavidin-AF647 alone or control yeast with the display tag alone; only the binder purified. In general terms: Flow cytometry measures light scatter and fluorescence of single cells or particles in a stream.

Assay [12] has as its target T7, EVA3_RHISA displayed on yeast (Rhipicephalus sanguineus) (UniProt P0C8E8).
T7 sequence: T1 sequence
The description is as above.

Assay [13] has as its target T8, P1142_AMBCA displayed on yeast (Amblyomma cajennense).
T8 sequence: T2 sequence
Described as above.

For assay [14], the target named is P1080_IXORI displayed on yeast (Ixodes ricinus). The description is as above.
For assay [15], the target named is T9, P1126_AMBCA displayed on yeast (Amblyomma cajennense).
T9 sequence: T4 sequence
The assay is described as above.

Results are given in words; binding and its absence hold for the method and conditions named. Some binding calls cover weakened binding; strength is not graded here. For part of these data: Sequences can lack the tags named with a protein.

For “CXCL12 (from UniProt P48061 22-93) (ligand)”, the binding result is recorded as “no binding (tested: 300 nM)” in assay [1]; “no binding (tested: 300 nM)” in assay [2]; “no binding (tested: 300 nM)” in assay [3]; “binds” in assay [4]; “no binding (tested: 300 nM)” in assay [5]; “binds” in [6]. Further, the binding result in assay [7], in assay [8], in assay [9] and in [10] was “no binding (tested: 300 nM)” in each case.

“biotinylated CXCL1 (from UniProt P09341 35-107) (ligand)”: the binding entry in [11] and in assay [12] was “binds” in each case.

As for “biotinylated CXCL10 (from UniProt P02778 22-98) (ligand)”, the binding result in [13], in assay [14] and in assay [15] was “binds” in each case.

Values taken from article PMC6643034.
